Experimental data taken from US20240150422A1 (ONKO INNATE, published 2024).

Biological target: T1, truncated form of the IL-12Rβ2 extracellular region (domains 1-3) (human, UniProt Q99665 24-319, limits assumed)
T1 construct: also called interleukin 12 receptor beta 2
T1 sequence: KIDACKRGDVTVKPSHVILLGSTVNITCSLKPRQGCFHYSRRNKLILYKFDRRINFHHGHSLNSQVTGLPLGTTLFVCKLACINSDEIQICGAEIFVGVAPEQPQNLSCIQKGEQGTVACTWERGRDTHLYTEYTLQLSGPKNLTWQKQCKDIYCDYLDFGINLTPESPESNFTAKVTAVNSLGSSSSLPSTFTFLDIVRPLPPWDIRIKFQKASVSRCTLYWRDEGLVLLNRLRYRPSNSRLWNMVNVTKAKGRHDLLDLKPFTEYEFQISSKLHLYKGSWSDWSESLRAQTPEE
Assay: SPR (Biacore T100, 20 C); IL-12 Fc captured on a protein A chip (245 RU), IL-12Rbeta2 (domains 1-3) as analyte; 1:1 Langmuir model

B1: T43A (Fc fusion)
chain 1: DKTHTCPPCPAPELLGGPSVFLFPPKPKDTLMISRTPEVTCVVVDVSHEDPEVKFNWYVDGVEVHNAKTKPREEQYGSTYRVVSVLTVLHQDWLNGKEYKCKVSNKALPAPIEKTISKAKGQPREPQVYTLPPCRDELTKNQVSLWCLVKGFYPSDIAVEWESNGQPENNYKTTPPVLDSDGSFFLYSKLTVDKSRWQQGNVFSCSVMHEALHNHYTQKSLSLSPGGGGGSGGGGSGGGGSTRRNLPVATPDPGMFPCLHHSQNLLRAVSNMLQKARQTLEFYPCASEEIDHEDITKDKTSTVEACLPLELTKNESCLNSRETSFITNGSCLASRKTSFMMALCLSSIYEDLKMYQVEFKTMNAKLLMDPKRQIFLDQNMLAVIDELMQALNFNSETVPQKSSLEEPDFYKTKIKLCILLHAFRIRAVTIDRVMSYLNAS
chain 2: [human IgG1 Fc with changes not printed]GGGGSGGGGSGGGGSTRIWELKKDVYVVELDWYPDAPGEMVVLTCDTPEEDGITWTLDQSSEVLGSGKTLTIQVKEFGDAGQYTCHKGGEVLSHSLLLLHKKEDGIWSTDILKDQKEPKNKTFLRCEAKNYSGRFTCWWLTTISTDLTFSVKSSRGSSDPQGVTCGAATLSAERVRGDNKEYEYSVECQEDSACPAAEESLPIEVMVDAVHKLKYENYTSSFFIRDIIKPDPPKNLQLKPLKNSRQVEVSWEYPDTWSTPHSYFSLTFCVQVQGKSKREKKDRVFTDKTSATVICRKNASISVRAQDRYYSSSWSEWASVPCS
notes: not in the list of the first reading
  Kd: 20.6 nM
